Experimental data as given in the supplement of paper PMC9446081.
About 220 (0.56%) of roughly 39,000 compounds showed activity. The list shows a part of the results.

Tested on: Escherichia coli K-12 BW25113
Assay: relative growth (OD600 normalised to plate interquartile mean) (fraction); higher = less growth inhibition, active = 0.2 or less
Conditions: 50 µM; LB; incubation time: overnight (16-24 h)
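Note: static incubation at 37 °C against the wild-type strain, values averaged over two biological replicates.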

| SMILES | relative growth |
| --- | --- |
| COc1ccc(CN(C)C[C@@H]2OCCCC[C@H](C)Oc3ccc(NC(=O)Nc4c(C)noc4C)cc3C(=O)N([C@@H](C)CO)C[C@H]2C)cc1 | inactive: 1.01 |
| C[C@H](CO)N1C[C@H](C)[C@H](CN(C)CC2CCCCC2)OCCCC[C@H](C)Oc2ccc(NC(=O)c3ccncc3)cc2C1=O | inactive: 0.987 |
| OC[C@H]1O[C@@H](OCc2ccccc2)[C@H](O)[C@@H](O)[C@@H]1O | inactive: 1.01 |
| C[C@H](CO)N1C[C@H](C)[C@H](CN(C)S(C)(=O)=O)Oc2ncc(C#CC(C)(C)O)cc2C1=O | inactive: 0.999 |
| C[C@H]1CN([C@@H](C)CO)C(=O)c2cc(NS(=O)(=O)c3ccc(F)cc3)ccc2O[C@H]1CN(C)Cc1ccc(-c2ccccc2)cc1 | inactive: 0.98 |
| C#CCCC(=O)NO | inactive: 0.982 |
| C[C@H](CO)N1C[C@H](C)[C@@H](CN(C)Cc2ccc(-c3ccccc3)cc2)Oc2c(NS(=O)(=O)c3ccc(F)cc3)cccc2C1=O | inactive: 1.01 |
| N=C(N=C(N)N)Nc1cccc(Cl)c1 | inactive: 1.01 |
| COc1ccccc1C#Cc1cnc2c(c1)C(=O)N([C@@H](C)CO)C[C@H](C)[C@H](CN(C)C(=O)CC1CC1)O2 | inactive: 1.01 |
| C[C@H]1CN([C@@H](C)CO)C(=O)c2cc(NS(=O)(=O)c3ccc(F)cc3)ccc2O[C@H]1CN(C)S(=O)(=O)c1cn(C)cn1 | inactive: 0.971 |
| CCS(=O)(=O)Nc1ccc2c(c1)C(=O)N(C)C[C@@H](OC)[C@H](C)CN(Cc1ccccn1)[C@H](C)CO2 | inactive: 0.979 |
| CN(C)CC(=O)N[C@H]1CC[C@@H](CC(=O)NCCN2CCCCC2)O[C@H]1CO | inactive: 0.96 |
| O=C(C[C@H]1CC[C@H]2[C@@H](COC[C@@H](O)CN2S(=O)(=O)c2ccccc2F)O1)NCc1ccccc1F | inactive: 0.981 |
| C[C@@H]1CCCCO[C@@H](CN(C)C(=O)c2ccccc2)[C@@H](C)CN([C@H](C)CO)C(=O)c2cc(NC(=O)NC3CCCCC3)ccc2O1 | inactive: 1.01 |
| O=C(C[C@H]1CC[C@H]2[C@@H](COC[C@H](O)CN2C(=O)c2ccccc2)O1)NCCCN1CCOCC1 | inactive: 1.02 |
| COc1ccc(S(=O)(=O)Nc2ccc3c(c2)C(=O)N([C@H](C)CO)C[C@H](C)[C@@H](CN(C)S(=O)(=O)c2ccc(F)cc2)O3)cc1 | inactive: 0.996 |
| O=c1nc(Nc2ccccc2)cn[nH]1 | inactive: 0.97 |
| COc1ccc(S(=O)(=O)N(C)C[C@@H]2OCCCC[C@H](C)Oc3ccc(NS(C)(=O)=O)cc3C(=O)N([C@H](C)CO)C[C@@H]2C)cc1 | inactive: 1.01 |
| C[C@H]1CCCCO[C@H](CN(C)C(=O)Nc2ccccc2)[C@@H](C)CN([C@@H](C)CO)C(=O)c2cc(NC(=O)c3ccncc3)ccc2O1 | inactive: 0.98 |
| CCS(=O)(=O)N1CC[C@]2(CC1)CN(Cc1ccccc1OC)[C@H](CO)c1c2c2ccc(cc2n1C)OC | inactive: 1.03 |
| N[C@H]1CCCC[C@@H]1OCc1ccccc1 | inactive: 0.981 |

| SMILES | relative growth |
| --- | --- |
| COCCOC(=O)N1C(=O)[C@@]2(c3cc(C#CC4(O)CCCCCC4)ccc31)[C@H](c1ccc(OCCO)cc1)N1[C@H](c3ccccc3)[C@H](c3ccccc3)OC(=O)[C@H]1[C@@H]2C(=O)NC[C@H](O)c1ccccc1 | inactive: 1.02 |
| COc1ccc(NC(=O)N(C)C[C@H]2OCCCC[C@H](C)Oc3ccc(NS(=O)(=O)c4c(C)noc4C)cc3C(=O)N([C@@H](C)CO)C[C@@H]2C)cc1 | inactive: 1.01 |
| CNc1ccccc1C(=O)N1CCc2c([nH]c3ccccc23)C1=O | inactive: 0.954 |
| CC(C)NC(=O)[C@H]1CC[C@@H](n2c(NC(=O)c3ccc(F)cc3)nc3ccc(CN4CCC(C(C)(C)O)CC4)cc32)CC1 | inactive: 0.999 |
| COc1ccc(S(=O)(=O)N(C)C[C@H]2OCCCC[C@@H](C)Oc3ccc(NS(=O)(=O)c4ccc(Cl)cc4)cc3C(=O)N([C@H](C)CO)C[C@H]2C)cc1 | inactive: 1.04 |
| CCCNC(=O)c1cc2c(c(-c3cccc(-c4cc5ccccc5o4)c3)n1)[C@@H](CCO)N(C(=O)NC(C)C)C2 | inactive: 1.1 |
| CCN(CC)C(C)CN1c2ccccc2Sc2ccccc21.Cl (stereo unspecified) | inactive: 0.804 |
| COc1ccc(S(=O)(=O)Nc2ccc3c(c2)CC(=O)N([C@H](C)CO)C[C@@H](C)[C@H](CN(C)C(=O)NC(C)C)O3)cc1 | inactive: 0.995 |
| Cc1ccccc1S(=O)(=O)N1C[C@@H](O)COC[C@@H]2O[C@H](CC(=O)NCc3ccccc3Cl)CC[C@H]21 | inactive: 0.995 |
| COc1ccc(S(=O)(=O)Nc2cccc3c2O[C@@H](CN(C)S(=O)(=O)c2ccccc2)[C@H](C)CN([C@H](C)CO)C3=O)cc1 | inactive: 0.951 |
| O=C(C[C@H]1CC[C@H]2[C@@H](COC[C@H](O)CN2CC2CCOCC2)O1)N1CCOCC1 | inactive: 0.993 |
| O=C1CCC23C=CC(=O)NCCCCNCCCNC(=O)C=Cc4ccc(c2c4)OC3C1 (stereo unspecified) | inactive: 1.02 |
| COc1ccc(NC(=O)N(C)C[C@H]2Oc3ccc(NC(=O)Cn4cnnn4)cc3CC(=O)N([C@@H](C)CO)C[C@@H]2C)cc1 | inactive: 0.997 |
| C[C@H](O)C#Cc1ccc2c(c1)O[C@H](CN(C)C(=O)CN(C)C)[C@H](C)CN([C@H](C)CO)S2(=O)=O | inactive: 1 |
| COc1ccc(C(=O)Nc2ccc3c(c2)C(=O)N(C)[C@H]2CC[C@@H](CC(=O)NCC4CC4)O[C@H]2CO3)cc1 | inactive: 0.981 |
| CCNC(=O)N1CCN(CCO)CC1 | inactive: 0.977 |
| C[C@H]([C@H](C)N1CC(=O)NC(=O)C1)N1CC(=O)NC(=O)C1 | inactive: 1.01 |
| Cc1noc(C)c1S(=O)(=O)Nc1ccc2c(c1)CC(=O)N([C@@H](C)CO)C[C@H](C)[C@@H](CN(C)Cc1ccncc1)O2 | inactive: 0.961 |
| C[C@@H]1CN([C@H](C)CO)C(=O)Cc2cc(NC(=O)Nc3ccccc3)ccc2O[C@H]1CN(C)Cc1ccc(-c2ccccc2)cc1 | inactive: 1.03 |
| CN(C)CCCOc1nn(Cc2ccccc2)c2ccccc12.Cl | inactive: 0.984 |
